# In PubChem BioAssay (NCATS):
# Values joined by “and” are separate entries in the source; they are usually repeats but may differ in a detail not shown here. Equal values may be shown once. This list was built around the results that the source calls inconclusive (neither active nor inactive); the mix of calls is not that of the screen. Where the call is inconclusive, the potency comes from a doubtful curve fit. Active and inactive are the calls of the source. Calls come from the whole dose curve; as a rule, active = well fitted cell-killing curve with a large enough effect; inconclusive = small, poorly fitted or top-dose-only effect, or effect the other way; inactive = no such curve, though single readings can be large or run the other way.
# Experiment: Viability qHTS for spleen associated tyrosine kinase inhibitor (SYKi) drug resistant MV4-11 cells (AID 1963824); note: nearly all actives have a fitted effect of over 35% in size
# Details: SYKi-resistant MV4-11 viability, CellTiter-Glo, 72 h; series mostly up to 45 µM; viability, % of control: at the top concentration
# Source text: Department of Medicine, Hematology/Oncology
# University Hospital Frankfurt, Germany.
# Trials have shown promising clinical activity of the selective SYK inhibitor entospletinib in patients with high expressing HOXA9/MEIS1 acute leukemias. As the development of resistance mechanisms is a common problem in the use of targeted drugs, we performed a chemical library screen to identify drug sensitivities in SYK inhibitor resistant AML cells. […] Glucocorticoids are potent immunosuppressants which work in part by inhibiting the transcription of cytokine genes.
# Described herein is a viability screen to look for activity in the SYK inhibitor drug resistant cell line against four NCATS compound libraries (MIPE 5.0, NPC, NPACT, and Kinase) totaling 11372 compounds. Active hits were reacquired for confirmation and further secondary assay testing.
# SEQUENCE No. (e.g., 1, 2, 3, etc.); […] (e.g., Cells, Incubation, Reagent, etc.); VALUE; DESCRIPTION.
# 1; Media; 2uL; white, solid-bottom Corning assay plate.
# 2; Compounds; 23nL; Echo acoustic dispenser.
# 3; Cell; 5uL; 500 cells per well.
# 4: Incubation; 72hr; 37 C, 5% CO2, 95% humidity.
# 5; Reagent; 3uL; CellTiter-Glo reagent (Promega).
# 6; Incubation; 10min; room temperature.
# 7; Detection; Luminescence; ViewLux plate reader (PerkinElmer).
# NOTES (numbers refer to Sequence numbers above
# 1. Quantitative high-throughput screening (qHTS) of small molecule compounds was conducted on drug resistant SYKi MV4-11 cell line.
# 2. Twenty-three nanoliter of small molecule compounds were added to each assay plates using the Echo acoustic dispenser (Beckman Coulter).
# 3. Cells were seeded into the assay plates at a final density of 500 cells in 5uL of media per well using the Multidrop Combi dispenser.
# 4. Plates were covered with stainless steel gasketed lids and incubated for 72 hours at standard cell culture conditions.
# 5. Viability was assessed by adding 3uL of CellTiter-Glo detection reagent (Promega).
# 6. Plates were covered with gasket lids and incubated for 10 minutes at room temperature.
# 7. Luminescence was measured on a ViewLux plate reader (PerkinElmer).
# Potency is the fitted concentration of half-maximal effect; tags give direction and shape of the fitted curve.
SMILES,Potency,"viability, % of control"
CN(C)c1ccc(O)c2c1C[C@H]1C[C@H]3[C@H](N(C)C)C(=O)C(C(N)=O)=C(O)[C@@]3(O)C(=O)C1=C2O,"active: 20.9 µM and inconclusive: 15 µM [cytotoxic, partial curve]",–
OCCOCCN1CCN(C2=Nc3ccccc3Sc3ccccc32)CC1,"inconclusive: 23.7 µM [cytotoxic, single point]",–
Cn1cnc2c(F)c(Nc3ccc(Br)cc3F)c(C(=O)NOCCO)cc21,active: 0.146 µM,–
CC1(C(=O)O)CCCC2(C)C3CCC4CC3(CCC12)CC4(O)CO (stereo not given),"inconclusive: 2.86 µM [cytotoxic, partial curve, poor fit]",–
CC1(C)CCCC2(C)C(CO)C3CCC2C31 (stereo not given),–,inactive: 77.7%
O=[N+]([O-])c1cccc(S(=O)(=O)NCCNS(=O)(=O)c2cccc([N+](=O)[O-])c2)c1,"inconclusive: 16.8 µM [cytotoxic, partial curve, poor fit]",–
COC1=CC(=O)CC(C)C12Oc1cc(OC)cc(O)c1C2=O (stereo not given),–,inactive: 86.5%
CCN1CCCC1=O,–,inactive: 78.9%
C/C=C/C=C/C(O)=C1/C(=O)[C@]2(C)C3/C(=C(O)/C=C/C=C/C)C(=O)C4(C)C1[C@]1(C)O[C@@]4(O)[C@@]3(C)O[C@@]12O,"inconclusive: 11.2 µM [cytotoxic, partial curve]",–
CNc1nc(Nc2cnn([C@H]3CCN(C4COC4)C[C@@H]3F)c2Cl)ncc1C(F)(F)F,active: 1.86 µM,–
OC(CCN1CCCCC1)(c1ccccc1)C1CCCCC1 (stereo not given),"inconclusive: 15 µM [cytotoxic, partial curve]",–
COC(=O)C1=CO[C@@H](O[C@@H]2O[C@H](CO)[C@@H](O)[C@H](O)[C@H]2O)C2C1C(=O)C[C@H]2C (stereo not given in full),–,inactive: 93.3%
CC(C)(O)CC(=O)NCCn1ccc2ncnc(Nc3ccc(Oc4cccc(C(F)(F)F)c4)c(Cl)c3)c21,active: 9.2 µM and active: 6.61 µM,–
O=C1Nc2ccccc2C1(c1ccc(O)cc1)c1ccc(O)cc1,"inconclusive: 11.9 µM [cytotoxic, partial curve]",–
NC1=NCC2c3ccccc3Cc3ccccc3N12 (stereo not given),"inconclusive: 11.9 µM [cytotoxic, partial curve]",–
CC1(C)CCCC2(C)C1C(O)C=C(CO)C2(O)CO (stereo not given),"inconclusive: 16.4 µM [cytotoxic, partial curve]",–
O=c1cc(CO)occ1O,–,inactive: 79%
CC(C)=C1C[C@@]2(C)C(=CC1=O)CC[C@@H](O)[C@@H]2C,"inconclusive: 0.0046 µM [rising, full curve, poor fit]",–
CCCNS(=O)(=O)Nc1ncnc(OCCOc2ncc(Br)cn2)c1-c1ccc(Br)cc1,"inconclusive: 23.5 µM [cytotoxic, single point]",–
CN1CCCCC1CCN1c2ccccc2Sc2ccc(S(C)=O)cc21 (stereo not given),"inconclusive: 33.5 µM [cytotoxic, single point]",–

SMILES,Potency,"viability, % of control"
CCN1CCN(c2cc(-c3ccc(F)cc3)c3c(n2)CCCCCC3)CC1,–,inactive: 83.5% [at 17.3 µM]
CCC(O)C(C)C1CCC(C(C)C(=O)O)O1 (stereo not given),–,inactive: 88.3%
CCN(CC)CCn1c(=O)c(Cc2ccc(OC)cc2)nc2ccccc21,"inconclusive: 105 µM [cytotoxic, partial curve, poor fit]",–
CCC(=O)O[C@]1(C(=O)SCF)[C@H](C)C[C@H]2[C@@H]3C[C@H](F)C4=CC(=O)C=C[C@]4(C)[C@@]3(F)[C@@H](O)C[C@@]21C,"inconclusive: 0.0168 µM [cytotoxic, full curve, poor fit]",–
CCCc1c2oc(C(=O)O)cc(=O)c2cc2c(=O)cc(C(=O)O)n(CC)c12,–,inactive: 72%
CC(N)CCCC(C)(C)O (stereo not given),"inconclusive: 0.237 µM [rising, full curve, poor fit]",–
C=C1CCC2C(C)(C)CC(=O)CC2(C)C1CCC(C)CCOC(C)=O (stereo not given),"inconclusive: 10.1 µM [cytotoxic, partial curve]",–
CC(=O)O[C@@H]1C[C@@]2(C)C(CC[C@]3(C)C2CC=C2C4CC(C)(C)CC[C@]4(C(=O)O)CC[C@]23C)C(C)(C)[C@H]1O (stereo not given in full),"inconclusive: 10 µM [cytotoxic, partial curve, poor fit]",–
CC(C)N(CCCNC(=O)Nc1ccc(C(C)(C)C)cc1)C[C@H]1O[C@@H](n2ccc3c(N)ncnc32)[C@H](O)[C@@H]1O,"inconclusive: 16.4 µM [cytotoxic, partial curve, poor fit] and inconclusive: 16.6 µM [cytotoxic, partial curve]",–
CC(C)CCCC(C)N (stereo not given),–,inactive: 56.7%
C[C@@H](NC(=O)[C@H](O)c1cc(F)cc(F)c1)C(=O)N[C@@H]1C(=O)N(C)c2ccccc2-c2ccccc21,active: 18.4 µM,–
CC1(C)C2CCC1(C)C(OC(=O)C(O)(CC(=O)O)CC(=O)O)C2 (stereo not given),–,inactive: 97.6%
CCOC(=O)C1=C(N)Oc2ccc(Br)cc2C1C(C#N)C(=O)OCC (stereo not given),active: 8.33 µM and active: 11.6 µM,–
Cc1[nH]c(C)c(Cl)c(=O)c1Cl,–,inactive: 108% [at 17.3 µM]
Cc1nnc(SCC2=C(C(=O)O)N3C(=O)[C@@H](NC(=O)Cn4cnnn4)[C@H]3SC2)s1,"inconclusive: 29.9 µM [cytotoxic, single point]",–
CC(C)(CO)[C@@H](O)C(=O)NCCC(=O)O,–,inactive: 93.2%
COc1ccc2cc(OCC3(C(=O)O)CN(C(=O)c4ccc(F)cc4)C3)ccc2c1,–,inactive: 75.8%
NC(=O)c1nc(F)c[nH]c1=O,inactive,–
COc1ccc(-c2cc(=S)ss2)cc1,"inconclusive: 33.5 µM [cytotoxic, single point]",–
CC(=O)OC/C=C(\C)C(CC1C(C)=C(OC(C)=O)C(=O)C2C(C)(C)C(O)CCC12C)OC(C)=O (stereo not given),"inconclusive: 7.96 µM [cytotoxic, single point]",–
